According to the antibiotic and cytotoxicity screens of Wong et al. (2023):
The list shows a part of the results.

Tested on: S. aureus RN4220
Assay: growth inhibition call (relative growth <= 0.2)
Details: 50 µM

Growth inhibition call, inactive:
C[C@@H]1CN([C@@H](C)CO)C(=O)c2cccc(NS(=O)(=O)c3cn(C)cn3)c2O[C@@H]1CN(C)S(=O)(=O)c1cn(C)cn1
C[C@@H]1CN([C@@H](C)CO)C(=O)c2cc(NS(=O)(=O)c3ccc(F)cc3)ccc2O[C@@H](C)CCCCO[C@H]1CN(C)C(=O)CCC(F)(F)F
Cc1ccc(S[C@]2(C(=O)NC(C)C)CC(=O)N(C3CCCCC3)[C@@H]2c2ccc(CO)cc2I)cc1
Cc1cnc2c(c1N1CCOCC1)c(=O)n(C)c(=O)n2C
C[C@H]1CN([C@@H](C)CO)C(=O)c2cc(NC(=O)CCC(F)(F)F)ccc2O[C@@H]1CN(C)Cc1ccc(C(F)(F)F)cc1
C[C@H]1CN([C@@H](C)CO)S(=O)(=O)c2ccc(C#CC3CCCC3)cc2O[C@@H]1CN(C)Cc1cncnc1
COc1ccc([Si](C)(C)[C@H]2[C@H](CCO)O[C@@]3(C(=O)N(Cc4ccccc4)c4ccc(N(C=O)c5ccccc5)cc43)[C@@H]2C)cc1
C[C@H](CO)N1C[C@H](C)[C@H](CN(C)C(=O)Nc2cccc3ccccc23)Oc2ccc(NC(=O)Cc3ccccc3)cc2C1=O
C[C@H]1CN([C@@H](C)CO)C(=O)Cc2cc(NS(=O)(=O)c3ccccc3)ccc2O[C@H]1CN(C)S(=O)(=O)c1ccccc1
CNC(=O)CO[C@H]1COC2(CCN(C(=O)c3ccn(C)n3)CC2)C1
C[C@@H]1CN([C@H](C)CO)C(=O)Cc2cc(NC(=O)NC3CCCCC3)ccc2O[C@@H]1CN(C)Cc1ccc(Cl)c(Cl)c1
